Data from PubChem BioAssay AID1347417 (National Center for Advancing Translational Sciences (NCATS), 2020).
Screen size: about 120,000 compounds; about 5,300 (4.4%) were called active. The shares of active, inactive and inconclusive entries below differ from those in the screen. Calls follow the shape of the dose curve; as a rule, active = well fitted inhibition curve with a large enough effect; inconclusive = small, poorly fitted or top-dose-only effect; inactive = no such curve, though single readings can be large or run the other way. Where the call is inconclusive, the potency comes from a doubtful curve fit.
Potency is read from the fitted curve at half-maximal effect; tags tell the direction and shape of the fitted curve.

Experiment: qHTS Primary assay for Inhibitors of Plasmodium falciparum Dd2 growth in vitro; also: nearly all actives have a fitted effect of over 65% in size;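 as to activity, negative = inhibition: plate controls were DMSO vehicle for no effect and reference drug for full effect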
Conditions: P. falciparum Dd2 growth, SYBR Green, 72 h; activity, negative = inhibition: at 28.9 µM (top of the series) unless noted; series mostly up to 28.9 µM
Method in brief: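 Infected erythrocytes (Dd2, 0.3% parasitemia, 2.5% hematocrit final) are added to compound in RPMI-1640/Albumax II medium, grown 72 h at 37C in low oxygen, then lysed with saponin/Triton-X containing SYBR Green and read by fluorescence.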
With COc1cccc(CN2CC[C@H]3COC(=O)N3c3cc(F)ccc3C2)c1 the Potency was “inactive”. With COc1ccc(CN2C[C@@H](CO)[C@H](c3nc(C)no3)C2)cc1C the Potency was inconclusive: 7.08 µM [inhibitor, single point]. In the case of Cn1c(C(=O)N2CCN(c3ccccn3)CC2)nc2nc(-c3ccccc3)c(Cl)cc21, the Potency is reported as inconclusive: 3.98 µM [inhibitor, partial curve, poor fit]. With COc1cccc(S(=O)(=O)N2[C@H]3CC[C@@H]2c2cnc(C)nc2C3)c1 the Potency was “inactive”. In the case of COc1ccc(C(=O)Nc2ccc(-c3nnc4n3CCCCC4)cc2)cc1OC, the Potency is reported as “inactive”. With COc1ccc(Cn2c(C(=O)O)c(CNCc3ccc(C)o3)c3ccc(C)cc32)cc1 the Potency was inconclusive: 12.6 µM [inhibitor, single point]. With Cc1ccsc1C(=O)C1CCCN(Cc2cc(F)ccc2-n2cccn2)C1 (configuration not stated) the Potency was inconclusive: 11.2 µM [inhibitor, partial curve, poor fit]. With Cc1cccc(NC(=O)C2CC(=O)N(c3n[nH]c4cc(Br)ccc34)C2)c1C (configuration not stated) the Potency was “inactive”. With COc1cc(-c2nc3nc(C)cc(C)n3c2Nc2ccc(Cl)cc2)ccc1O the Potency was inconclusive: 14.1 µM [inhibitor, single point]. For CCCS(=O)(=O)Nc1ccc(=O)n2c1[C@@H]1C[C@@H](CN(C(=O)COc3ccccc3)C1)C2, the Potency was “inactive”. For O=C(Cc1ccc(N(Cc2ccccc2)C(=O)c2ccco2)cc1)NCC1CCCO1 (configuration not stated), the Potency was inconclusive: 1.78 µM [inhibitor, full curve]. For CCOc1ccccc1NC(=O)Cn1c(=O)ccc2cc(S(=O)(=O)N3CCCC3)ccc21, the Potency was inconclusive: 7.08 µM [inhibitor, partial curve]. For O=C1NC(=NC2CCCCC2)C2(CCN([S+](=O)([O-])c3ccsc3)C2)N1c1cccnc1 (configuration not stated), the Potency was “inactive”. For CCCNc1cc(N2CCC(CCC(=O)NCc3ccc(Cl)cc3)CC2)ncn1, the Potency was inconclusive: 17.8 µM [inhibitor, single point]. For CCCn1c2ccccc2c2cnn(CC(=O)N(CCCOC)Cc3ccco3)c(=O)c21, the Potency was inconclusive: 17.8 µM [inhibitor, single point]. In the case of CN(Cc1cccn1C)C1CCCc2ccccc21 (configuration not stated), the Potency is reported as inconclusive: 11.2 µM [inhibitor, partial curve]. In the case of COc1ccc(-c2nc(C(C)C)nc3c2CCN(C(=O)Cc2ccc(F)cc2)CC3)cc1, the Potency is reported as inconclusive: 3.55 µM [inhibitor, full curve]. With CC(C)NC(=O)N1CCC2(CC1)CN(C(=O)Cc1csc(N)n1)Cc1ccccc1O2 the activity, negative = inhibition was inconclusive: -188% [inhibitor]. For c1ccc([C@@H]2C[C@H]2c2nc(C3CCOCC3)nn2-c2cccnc2)cc1, the Potency was “inactive”. For COCC[C@]1(O)CCN(C(=O)COc2ccc3c(c2)OCO3)C[C@H]1C, the Potency was “inactive”. In the case of CC(C)Cn1c(=O)c2ccccc2n2c(CCC(=O)Nc3ccc(F)cc3)nnc12, the Potency is reported as inconclusive: 15.8 µM [inhibitor, single point]. For CCOc1cccc(CC(=O)N2CCc3c([nH]c4ccccc34)C2c2ccc(SC)cc2)c1OCC (configuration not stated), the Potency was active: 7.94 µM. For COCCN1C(=O)CS(=O)(=O)C12CCN(C(=O)c1cccc(OC)c1)CC2, the Potency was inconclusive: 8.91 µM [inhibitor, partial curve, poor fit]. With CCOc1ccc(NC(=O)Cn2nc(Cc3ccncc3)c3ccccc3c2=O)cc1 the Potency was “inactive”. For CN1c2cc(C(=O)N3CCN(c4ccccc4)CC3)ccc2C(=O)N2CCCCCC21 (configuration not stated), the Potency was inconclusive: 10 µM [inhibitor, partial curve, poor fit]. With CCCNC(=O)N1CCN(Cc2c(C)noc2C)CC1 the Potency was inconclusive: 17.8 µM [inhibitor, partial curve, poor fit]. For Cn1cnnc1CC1CCCN(S(=O)(=O)c2ccc3c(c2)C(C)(C)C(=O)N3)C1 (configuration not stated), the Potency was “inactive”. For O=C1CC2(CCN(Cc3ccccc3)CC2)Oc2cc(Cl)ccc21, the Potency was inconclusive: 2.51 µM [inhibitor, full curve]. For CNc1cc(C2CC(NS(=O)(=O)c3c(C)noc3C)C2)nc(N)n1 (configuration not stated), the Potency was inconclusive: 12.6 µM [inhibitor, single point]. For Cn1c(=O)c2c(c3ccccc31)OC(=O)CC2c1cccc(Cl)c1 (configuration not stated), the Potency was “inactive”. With Cc1ccc(CC(=O)N2CCCN(c3cc(-c4ccc(C)c(C)c4)[nH]n3)CC2)cc1 the Potency was “inactive”. In the case of O=C(CCC1CCCC1)N1CCCC(c2noc(COc3ccccc3F)n2)C1 (configuration not stated), the Potency is reported as inconclusive: 12.6 µM [inhibitor, partial curve, poor fit]. In the case of CCN(CC)CCOC(=O)c1ccc(Nc2c3c(nc4ccccc24)CCC3)cc1, the Potency is reported as active: 7.08 µM. In the case of Cc1ccccc1CC(=O)N[C@@H]1CN(S(C)(=O)=O)C[C@H]1CN(C)C, the Potency is reported as inconclusive: 17.8 µM [inhibitor, single point]. For COCCNc1nccc(C2(c3ccccc3Cl)CCNCC2)n1, the Potency was inconclusive: 12.6 µM [inhibitor, single point]. In the case of CC(C)CN(CCNC(=O)c1cc(-c2cccs2)nc2ccccc12)CC(C)C, the Potency is reported as inconclusive: 8.91 µM [inhibitor, partial curve]. In the case of CCOc1ccccc1CNC(=O)c1cnc2sc(N(CC)CC)nn2c1=O, the Potency is reported as inconclusive: 12.6 µM [inhibitor, single point]. In the case of Cc1ccc2nc([C@H]3CCN(Cc4ccc(C(F)(F)F)cc4)C3)[nH]c2c1, the Potency is reported as inconclusive: 10 µM [inhibitor, partial curve, poor fit]. In the case of CCN(CC)CCOC(=O)c1ccc(NC(=O)c2cc3c(s2)-c2ccccc2OC3)cc1, the Potency is reported as inconclusive: 11.2 µM [inhibitor, single point]. In the case of COCCn1cnc2ccc(OCc3ccc(Cl)cc3)nc2c1=O, the Potency is reported as active: 11.2 µM. For CCc1ccc(NC(=O)CN2C(=O)c3ccccc3Sc3ccc(C(=O)N4CCCC4)cc32)cc1, the Potency was inconclusive: 17.8 µM [inhibitor, single point]. For COCc1cc(=O)n(CC(=O)Nc2cc(OC)ccc2OC)c(N2CCOCC2)n1, the Potency was inconclusive: 3.98 µM [inhibitor, single point].
